Out of some 52,000 compounds screened, about 4,300 (8.3%) were called active. Rule as the data show it: active = survival mostly below about 52% (no sharp cut-off); inactive = mostly above about 56%. The list shows a part of the results.
system: DeltatarO mutant; experiment: S. aureus survival, RN4220 and DeltatarO strains – OD600, teichoic acid synthesis inhibitors, primary screen (AID 463173); conditions: S. aureus RN4220 wild type/DeltatarO growth, OD600, 18 h, active compounds read low, screened at 18.75 µg/mL (by protocol)

Row | SMILES | survival
1 | Cn1nnnc1SCC(=O)OC1CCCCC1 | inactive: 87%
2 | COc1cc(Cl)c(C)cc1NC(=O)c1nn(C)c2c1CSc1ccccc1-2 | inactive: 83%
3 | CCCCc1nc2c(nnn2Cc2ccccc2)c(=O)[nH]1 | inactive: 82%
4 | O=C(CCCCn1c(=O)c2ccccc2n(Cc2cccc(Cl)c2)c1=O)NCc1ccc2c(c1)OCO2 | inactive: 85%
5 | COc1ccc(CNC(=O)c2cc(-c3ccc(Cl)cc3)n[nH]2)cc1 | inactive: 78%
6 | O=C(NCc1nc(-c2ccccc2)no1)c1ccco1 | inactive: 68%
7 | CCOC(=O)c1c(C)oc2nc(C)nc(N3CCN(c4cccc(C(F)(F)F)c4)CC3)c12 | inactive: 80%
8 | COc1ccc(C2CC(=O)N(CC(=O)Nc3ccc(C(C)=O)cc3)c3ccccc3S2)cc1OC (stereo not drawn) | inactive: 94%
9 | CCCN(CCC)CCNC(=O)c1nn(C)c2c1CS(=O)(=O)c1ccccc1-2 | inactive: 61%
10 | O=C(NCC(c1ccc2c(c1)OCO2)N1CCN(c2ccccc2F)CC1)c1ccccc1F (stereo not drawn) | inactive: 71%
11 | O=c1[nH]cnc2nc3c4ccccc4c4ccccc4c3nc12 | inactive: 74%
12 | CCOC(=O)c1c(NC(=O)/C=C/c2ccc(Cl)cc2)sc2c1CCC(C)C2 (stereo not drawn) | active: 44%
13 | Cc1ccccc1C(=O)n1nc(-c2ccco2)nc1NCc1cccs1 | inactive: 58%
14 | Cc1ccc2[nH]c(CSc3nnc(NC(=O)COc4ccc(F)cc4)s3)cc(=O)c2c1 | inactive: 81%
15 | COc1ccc(Nc2cc(C(=O)NCCCN(C)C3CCCCC3)c3ccccc3n2)c(OC)c1 | inactive: 106%
16 | COC(=O)c1ccc2c(=O)n(CCCCCC(=O)NCc3ccc(OC)cc3)c(=O)[nH]c2c1 | inactive: 71%
17 | COc1ccc(-c2cc(C)no2)cc1S(=O)(=O)N1CCOc2ccc(Cl)cc21 | inactive: 92%
18 | CCCN1CCN(c2cc(-c3ccccc3)nc3cc(-c4cccc(F)c4)nn23)CC1 | inactive: 68%
19 | CNC(=O)C1C2C=CC3(O2)C1C(=O)N(C1CC1)C3C(=O)NCc1ccc(OC)cc1 (stereo not drawn) | inactive: 95%
20 | CC(C)c1ccc(NC(=O)CN2C(=O)COc3ccc(S(=O)(=O)N4CCOCC4)cc32)cc1 | inactive: 67%
21 | COc1ccc(CCNc2nc(SCc3cccc(F)c3)nc3ccccc23)cc1OC | inactive: 85%
22 | CCCN(CCC)CCCNC(=O)c1cn(C)c2ccc(S(=O)(=O)N3CCOCC3)cc2c1=O | inactive: 90%

Row | SMILES | survival
23 | CCCn1c2ccccc2c2cnn(CC(=O)NCCCN(Cc3ccccc3)C(C)C)c(=O)c21 | inactive: 88%
24 | O=S(=O)(NCCc1csc2nc(-c3ccc(Cl)cc3)nn12)c1ccc2c(c1)OCCO2 | inactive: 72%
25 | CCc1ccc(C2c3c(-c4ccccc4)n[nH]c3C(=O)N2c2ccc(C(=O)O)cc2)cc1 (stereo not drawn) | active: 48%
26 | COc1cccc(-n2cc(C(=O)NCc3ccc(C)cc3)c3ccccc3c2=O)c1 | inactive: 81%
27 | O=C(CN1N=C(c2ccccc2)CCC1=O)NCc1ccc(F)cc1Cl | inactive: 88%
28 | O=C(CSc1nccn1Cc1ccc(Cl)cc1)Nc1ccc2c(c1)OCO2 | inactive: 99%
29 | Cc1nn(-c2ccc(N3CCOCC3)nn2)c(C)c1CCC(=O)Nc1ccc(F)cc1F | inactive: 116%
30 | O=C(Nc1ccc(NC(=O)c2ccccc2F)cn1)c1ccco1 | inactive: 82%
31 | COc1ccc(NC(=O)C2CCCN(S(=O)(=O)c3c(C)[nH]c(=O)[nH]c3=O)C2)cc1Cl (stereo not drawn) | inactive: 84%
32 | Cc1cc(C)cc(OCCSc2nc(-c3cccs3)nc3cc(=O)[nH]n23)c1 | inactive: 67%
33 | CCc1cc2c(cc3c(=O)n(CC(=O)NCCc4ccccc4)ncn32)s1 | inactive: 83%
34 | O=C(Nc1ccc(Cl)c(C(F)(F)F)c1)C(Cc1ccccc1)NS(=O)(=O)c1cccc2nsnc12 (stereo not drawn) | inactive: 64%
35 | Cc1ccc(C)c(NC(=O)c2ccc3c(c2)CCN3S(=O)(=O)c2ccccc2)c1 | active: 40%
36 | CCC(Sc1nc2ncccc2o1)C(=O)Nc1cccc(C)c1 (stereo not drawn) | inactive: 84%
37 | O=c1[nH]cnc2c1nnn2Cc1ccccc1F | inactive: 88%
38 | O=C(CCCn1c(=O)[nH]c2ccccc2c1=O)N1CCN(c2ccccc2)CC1 | inactive: 116%
39 | CCOC(=O)c1cc2c(=O)n3ccccc3nc2n(Cc2ccco2)c1=NC(=O)c1ccc(F)cc1 | active: 43%
40 | O=S(=O)(NCCc1cn2ccsc2n1)c1ccc(Cl)cc1 | inactive: 109%
41 | CCCCCCc1cc2cc(-c3cn4c(n3)sc3cc(OC)ccc34)c(=O)oc2cc1O | inactive: 94%
42 | COc1ccc(CN(C(=O)c2ccc(CN3CCOCC3)o2)C(C(=O)NCC2CCCO2)c2ccc(F)cc2)cc1 (stereo not drawn) | inactive: 68%
43 | Cc1ccc(C(=O)NC2CC3CCCC(C2)N3C(=O)NC2CCCCC2)cc1 (stereo not drawn) | inactive: 62%
44 | Cc1cc(=O)n2c([nH]c3ccccc32)c1C(=O)O | inactive: 61%

Row | SMILES | survival
45 | Cc1ccc(C(=O)c2sc(Nc3ccc(F)cc3)nc2N)c(C)c1 | inactive: 78%
46 | Cc1ccc2c(c1)C(C)(c1ccccc1)CC(C)(C)N2C(=O)c1ccc(F)cc1 (stereo not drawn) | active: -4%
47 | COc1ccc(-c2nc(CNC(=O)NC3CCCCC3)c(C)o2)c(OC)c1 | inactive: 94%
48 | CC(=O)c1ccc(NC(=O)Cn2c(=O)oc3cc(S(=O)(=O)N4CCCCC4)ccc32)cc1 | inactive: 86%
49 | O=C1CCCc2[nH]c(=O)c(-c3nc(-c4cccc([N+](=O)[O-])c4)cs3)cc21 | inactive: 47%
50 | CCOc1ccccc1NC(=O)Cn1c(=O)n(Cc2ccccc2)c(=O)c2c3c(sc21)CN(C(C)=O)CC3 | inactive: 94%
51 | O=C(CCC1N=C2c3ccccc3N=C(SCc3ccc(Cl)cc3)N2C1=O)NC1CCCCC1 (stereo not drawn) | inactive: 72%
52 | COc1ccc(Cl)cc1NC(=O)c1sc2nc3c(cc2c1N)CN(C)CC3 | inactive: 99%
53 | Cc1cccc(C)c1NC(=O)Cn1c(=O)cc(C)c2c(C)nn(-c3cccc(Cl)c3C)c21 | inactive: 93%
54 | Cc1ccc(-n2ncc3c(N4CCCCC4)ncnc32)cc1 | inactive: 95%
55 | O=C(CN1CCN(C2CCCCC2)C(=O)C1=O)Nc1ccc(Cl)cc1 | inactive: 86%
56 | O=C(Nc1cccc(Cl)c1)c1cc(S(=O)(=O)N2CCC3(CC2)OCCO3)ccc1F | inactive: 128%
57 | O=C(NCCN1CCCC1)c1ccco1 | inactive: 85%
58 | COc1cc(OC)c(NC(=O)Cn2cnc3c(nc4n3CCCCC4)c2=O)cc1Cl | inactive: 72%
59 | Cc1ccccc1C(=O)n1nc(-c2cccnc2)nc1NCc1ccc(F)cc1 | inactive: 48%
60 | CCN(CCCNC(=O)Cn1ncc2c3ccccc3n(C)c2c1=O)c1cccc(C)c1 | inactive: 81%
61 | Cc1cc(OCC(=O)Nc2nc3c(s2)CCCC3)cc(C)c1Cl | inactive: 85%
62 | CCOC(=O)c1ccccc1NC(=O)COc1cc(=O)n(CC)c2ccccc12 | inactive: 53%
63 | Cc1nc(SCC(N)=O)c2c3c(sc2n1)CCCC3 | inactive: 80%
64 | CC1CC(=O)N(CC(=O)Nc2ccc(OC(F)(F)F)cc2)c2ccccc2S1 (stereo not drawn) | inactive: 65%
65 | Cc1ccc(-c2nn(CO)c(=S)o2)cc1 | active: 48%
66 | Cc1cccc(N(C)C(=O)c2cc3c(=O)oc4ccc(C)cc4c3s2)c1 | inactive: 103%

Row | SMILES | survival
67 | Cc1ccc(CCNC(=O)c2cc3cc(S(=O)(=O)N4CCCCC4)ccc3n2C)cc1 | inactive: 89%
68 | CCOc1ccc(-n2nc3ccc(NC(=O)c4ccc(C)cc4C)cc3n2)cc1 | inactive: 82%
69 | CCC(=O)Nc1ccccc1C(=O)OCc1cc(=O)n2cc(C)sc2n1 | inactive: 75%
70 | O=C(NC1C2CC3CC(C2)CC1C3)c1cccnc1 (stereo not drawn) | inactive: 83%
71 | COc1ccc(OC)c(NC(=O)Cn2c(CCC(=O)O)ccc2-c2ccccc2)c1 | inactive: 103%
72 | COc1cc(C(C(=O)NC2CCCCC2)N(Cc2ccco2)C(=O)c2cnccn2)cc(OC)c1OC (stereo not drawn) | inactive: 83%
73 | CC(C)CCN1C(=O)c2ccccc2CC1(C)C(=O)NC1CCCCC1 (stereo not drawn) | inactive: 88%
74 | CCOCCc1nn2c(=O)cc(COC(=O)c3ccccc3NC(=O)CC(C)C)nc2s1 | inactive: 89%
75 | CC(C)CN(CC(C)C)S(=O)(=O)c1ccc(C(=O)Nc2sc3c(c2C(N)=O)CCN(C(C)C)C3)cc1 | inactive: 95%
76 | CCC(c1nnnn1C1CCCC1)N(Cc1cccs1)Cc1cc2cccc(C)c2[nH]c1=O (stereo not drawn) | inactive: 98%
77 | CCOc1ccc(-c2noc(CSc3nnc(Cc4ccccc4)n3-c3ccc(F)cc3)n2)cc1 | inactive: 72%
78 | Cc1cccc(N2CCN(c3ncnc4c3cnn4-c3ccc(Cl)cc3)CC2C)c1 (stereo not drawn) | inactive: 71%
79 | O=C(O)c1cc(-c2ccccc2)on1 | inactive: 100%
80 | COC(=O)c1scc(-c2ccc(C)cc2)c1S(=O)(=O)N1CCN(c2ccccc2F)CC1 | inactive: 118%
81 | O=C(Cn1c(-c2cccs2)cc2cc(F)ccc21)N1CCCCC1 | inactive: 90%
82 | COc1cccc(C(=O)Nc2c3c(nn2-c2ccc(C)cc2C)CS(=O)(=O)C3)c1OC | inactive: 116%
83 | CCN1CCN(CCCNC(=O)c2cnn(-c3ccc(OC)cc3)c2C2CCN(C(=O)OC(C)(C)C)CC2)CC1 | inactive: 95%
84 | CCN1CCOC(=O)C1CC(=O)Nc1cc(Cl)ccc1C (stereo not drawn) | inactive: 52%
85 | COC(=O)c1ccc(C(=O)OC)c(NC(=O)c2cnn3c(C(F)F)cc(-c4ccc(C)cc4)nc23)c1 | inactive: 60%
86 | CCOC(=O)c1cccc(NC(=O)CC2C(=O)N(c3ccc(F)cc3)C(=O)N2Cc2cccc(OC)c2)c1 (stereo not drawn) | inactive: 93%
87 | Cc1ccc(NC(=O)CN2C(=O)c3ccccc3Sc3ccc(C(=O)N4CCCC4)cc32)cc1 | inactive: 76%
88 | O=C(Nc1cc(Cl)ccc1Cl)c1cc(S(=O)(=O)N2CCCc3ccccc32)ccc1F | inactive: 94%
